Where “and” joins values, the source holds several entries; their conditions need not be identical. Identical values can stand only once. The campaign covered roughly 400,000 compounds. About 2,200 (0.55%) were called active. Roughly 1% stayed inconclusive and do not appear here. Calls come from the whole dose curve; as a rule, active = well fitted inhibition curve with a large enough effect; inconclusive = small, poorly fitted or top-dose-only effect, or another doubt; inactive = no such curve, though single readings can be large or run the other way. The entries are a selection whose mix differs from that of the whole data set. Some compounds were tested as several samples or in several runs, with calls that do not always agree. Residues, ends and D or L forms follow the SMILES beside them. Groups on a side chain read outwards from the residue. *: point of attachment. Nicotinoyl = O=C(c1cccnc1)*; Cbz = O=C(OCc1ccccc1)*
% is set by controls: 0 for no effect and ±100 for the full control effect; potency is the fitted concentration of half-maximal effect.

Chain of UniProt Q9UBT6 (Q9UBT6 whole entry, looked up): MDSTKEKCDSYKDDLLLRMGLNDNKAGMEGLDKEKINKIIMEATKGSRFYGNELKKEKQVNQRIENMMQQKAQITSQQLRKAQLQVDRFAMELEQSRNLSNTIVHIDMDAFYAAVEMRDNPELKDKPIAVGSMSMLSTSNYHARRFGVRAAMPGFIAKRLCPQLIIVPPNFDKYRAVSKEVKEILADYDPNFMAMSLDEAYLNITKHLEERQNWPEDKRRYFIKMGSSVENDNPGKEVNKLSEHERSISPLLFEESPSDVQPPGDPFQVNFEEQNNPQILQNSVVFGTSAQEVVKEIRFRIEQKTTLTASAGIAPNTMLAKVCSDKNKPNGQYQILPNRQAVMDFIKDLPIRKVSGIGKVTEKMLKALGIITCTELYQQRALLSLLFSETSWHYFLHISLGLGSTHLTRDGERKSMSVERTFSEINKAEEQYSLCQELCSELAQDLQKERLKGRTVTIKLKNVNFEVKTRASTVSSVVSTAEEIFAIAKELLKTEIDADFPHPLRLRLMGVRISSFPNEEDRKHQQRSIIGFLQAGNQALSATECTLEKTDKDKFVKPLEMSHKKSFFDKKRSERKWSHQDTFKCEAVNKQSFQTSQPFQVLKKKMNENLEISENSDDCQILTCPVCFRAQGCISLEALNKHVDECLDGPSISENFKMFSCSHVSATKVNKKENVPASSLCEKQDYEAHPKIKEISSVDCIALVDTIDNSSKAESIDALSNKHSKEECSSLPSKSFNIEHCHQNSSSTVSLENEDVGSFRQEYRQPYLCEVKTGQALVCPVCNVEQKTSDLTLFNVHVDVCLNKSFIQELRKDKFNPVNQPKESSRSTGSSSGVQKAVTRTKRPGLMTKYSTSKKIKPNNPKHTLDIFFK

This test has as its target DNA polymerase kappa (Homo sapiens) (UniProt Q9UBT6). In words: qHTS for Inhibitors of Polymerase Kappa. As to conditions: purified Pol kappa, fluorescent DNA synthesis assay, 10 min; series mostly up to 107 µM; activity, negative = inhibition: at the top concentration. In outline:
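Inhibition of 10 nM Pol kappa is measured by a fluorescent read-out at 0 and 10 min following addition of 50 nM substrate (final), with a 15-min room-temperature compound preincubation.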
For `Clc1ccc2ncnc(NCc3ccc4c(c3)OCO4)c2c1`, the Potency entry is “inactive”.

With `CN(C)CCNc1ccc2ncn3c4ccc(O)cc4c(=O)c1c23`, the Potency is active: 22.4 µM.

Regarding `C[C@H]1c2cccc(O)c2C(O)=C2C(=O)[C@]3(O)C(O)=C(C(N)=O)C(=O)[C@@H](N(C)C)[C@@H]3[C@@H](O)[C@@H]21`, the Potency entry was “inactive”.

Take `C[C@@H]1O[C@@H](OC2O[C@@H](COc3cc(O)c4c(=O)cc(-c5ccc(O)cc5)oc4c3)[C@@H](O)[C@@H](O)[C@@H]2O)[C@H](O)[C@H](O)[C@H]1O` (stereo partly specified): the “activity, negative = inhibition” value was inactive: 12.5% [at 60.1 µM].

In the case of `C=CCc1ccccc1OCC(O)CNC(C)C` (stereo unspecified), the Potency result is “inactive”.

As for `CC(C)CC1=C/C(=C/c2ccc(-c3ccccc3)o2)C(=O)O1`, the Potency was active: 44.7 µM.

In the case of `Cc1c(O)cccc1C(=O)N[C@@H](CSc1ccccc1)[C@H](O)CN1C[C@H]2CCCC[C@H]2C[C@H]1C(=O)NC(C)(C)C`, the Potency result is “inactive”.

As for `O=C1OCCN1C(=O)[C@H]1[C@H](c2ccc(F)cc2)C(c2ccccc2)=NN1c1ccc(Br)cc1`, the “activity, negative = inhibition” value was inactive: -20.5%.

For `CCSc1ccc2c(c1)N(CCCN1CCN(C)CC1)c1ccccc1S2`, the “activity, negative = inhibition” value is inactive: -14.4%.

`CC[C@@H]1C(c2cccc(Cl)c2)=NN(c2ccc(Br)cc2)[C@H]1C(=O)N1CCOC1=O`: the “activity, negative = inhibition” value is inactive: 0.969%.

For the compound `Cc1c(C)c2c(c(C)c1O)CC[C@@](C)(CCC[C@H](C)CCC[C@H](C)CCCC(C)C)O2`, the Potency entry is “inactive”.

Turning to `CC[C@H](C)[C@H]1O[C@]2(CC[C@@H]1C)C[C@@H]1C[C@@H](CC=C(C)[C@@H](O[C@H]3C[C@H](OC)[C@@H](O[C@H]4C[C@H](OC)[C@@H](O)[C@H](C)O4)[C@H](C)O3)[C@@H](C)C=CC=C3CO[C@@H]4[C@H](O)C(C)=C[C@@H](C(=O)O1)[C@]34O)O2`, the “activity, negative = inhibition” value is inactive: -5.17%.

As for `CC[C@]1(O)C[C@@H]2CN(CCc3c([nH]c4ccccc34)[C@@](C(=O)OC)(c3cc4c(cc3OC)N(C)[C@H]3[C@@](O)(C(=O)OC)[C@H](OC(C)=O)[C@]5(CC)C=CCN6CC[C@]43[C@@H]65)C2)C1`, the “activity, negative = inhibition” value was inactive: -28.5%.

Consider `O=C(O)Cc1ccc(S(=O)(=O)N2CCCC2)s1`, for which the Potency was active: 79.4 µM.

As to `Nc1ccc2nc(-c3ccc(-c4nc5ccc(N)cc5[nH]4)cc3)[nH]c2c1`, the Potency is active: 50.1 µM.

Regarding `NCCCCCN`, the “activity, negative = inhibition” value is inactive: 14.1% [at 60.1 µM].

`CCCCCCCC/C=C\CCCCCCCCCCCC(=O)O`: the Potency is active: 10.6 µM.

As to `NN=C1c2ccccc2C(=O)C1C(=O)C(c1ccccc1)c1ccccc1` (stereo unspecified), the Potency was active: 22.4 µM.

Regarding `NC(C(=O)NC1C(=O)N2C(C(=O)O)=C(Cl)CSC12)c1ccccc1` (stereo unspecified), the “activity, negative = inhibition” value was inactive: -15.8% [at 60.1 µM].

Regarding `Cc1cc2oc(=O)cc(-c3ccccc3)c2c(C)c1-c1ccc(C(F)(F)F)cc1`, the “activity, negative = inhibition” value was inactive: -12.5%.

As for `Cc1ccc2nc(-c3ccc(NC(=O)CN4CCN(C(=O)c5ccco5)CC4)cc3)sc2c1`, the Potency is active: 44.7 µM.

In the case of `COc1ccccc1CNC(=O)[C@H](NC(=O)C1CCN(C(=O)[C@@H](N)CCSC)CC1)C(C)C`, the “activity, negative = inhibition” value is inactive: 24.5%.

Take `Cc1cccc(C2=NN(c3ccccc3)[C@H](CO)[C@H]2c2ccccc2)c1`: the “activity, negative = inhibition” value was inactive: 2.28%.

As for `N#Cc1ccc[n+](CC(=O)c2ccc(O)c(O)c2)c1`, the Potency is active: 0.891 µM.

For the compound `CN(C)/C=C/C=C1C(=O)CCCC1=O`, the Potency was active: 79.4 µM.

For `NS(=O)(=O)c1ccc(N/N=C/c2ccc(O)c(O)c2O)c([N+](=O)[O-])c1`, the Potency is active: 10 µM.

In the case of `CC(=O)N[C@@H](Cc1ccc(O)cc1)C(=O)N[C@H](C(=O)N[C@@H](C)C(=O)N[C@H](C=O)CC(=O)O)C(C)C`, the “activity, negative = inhibition” value is inactive: 17% [at 60.1 µM].

For `Cn1nnnc1SCC1=C(C(=O)O)N2C(=O)[C@@H](NC(=O)[C@@H](O)c3ccccc3)[C@@H]2SC1`, the activity, negative = inhibition was inactive: -15.8% [at 12 µM].

In the case of `CC[C@H](C)[C@H](NC(=O)[C@@H](NC(=O)[C@@H](NC(=O)[C@H](CCC(=O)O)NC(=O)[C@H](CCC(=O)O)NC(=O)[C@H](CCC(=O)O)NC(=O)[C@H](C)NC(=O)[C@@H](N)CC(C)C)C(C)C)C(C)C)C(=O)N[C@@H](CCCNC(=N)N)C(=O)N[C@@H](CO)C(=O)N[C@@H](C)C(=O)N[C@@H](CC(N)=O)C(=O)N[C@@H](Cc1ccccc1)C(=O)N[C@H](C(=O)N[C@@H](CC(=O)O)C(=O)N[C@@H](CC(N)=O)C(=O)O)[C@@H](C)O`, the “activity, negative = inhibition” value was inactive: 20.6% [at 60.1 µM].

For `Cc1c(C)c2c(c(C)c1O)CCC(C)(CCCC(C)CCCC(C)CCCC(C)C)O2` (stereo unspecified), the activity, negative = inhibition was inactive: -6.48% [at 19.4 µM].

Take `CC(=C/C(=O)O)/C=C/c1ccc(Cl)o1`: the Potency was active: 25.1 µM.

As for `CC[C@H](C)[C@H](NC(=O)[C@@H]1CCCN1C(=O)[C@H](Cc1cnc[nH]1)NC(=O)[C@H](CCCCNC(=O)[C@H](CCCN=C(N)N)NC(=O)OCc1ccccc1)NC(=O)[C@H](Cc1ccc(O)cc1)NC(=O)c1cccnc1)C(=O)O` (Nicotinoyl-YK([Arg-Cbz])HPI-OH), the “activity, negative = inhibition” value is inactive: 13.3% [at 60.1 µM].

As to `C=CCOC(=O)c1cc(-c2ccc(/C=C3\C(=O)NC(=O)C(C#N)=C3C)o2)ccc1Cl`, the Potency is active: 28.2 µM.

For the compound `CC/C=C\C/C=C\C/C=C\CCCCCCCC(=O)O`, the Potency was active: 3.16 µM and active: 28.2 µM.

Consider `COC(=O)C1OC(=O)C2OC23[C@]2(C)C(O)CC4C(C)(C)C(OC(C)=O)CC(OC(C)=O)[C@@]4(C)C2CC[C@@]13C` (stereo partly specified), for which the “activity, negative = inhibition” value was inactive: -3.2% [at 60.1 µM].

On to `Oc1cc(O)c2c(c1)OC(c1ccc(O)c(O)c1)C(O)C2` (stereo unspecified), for which the Potency is active: 3.16 µM.

The record behind these values is PubChem BioAssay AID588579 (National Center for Advancing Translational Sciences (NCATS), 2011).
